# PubChem BioAssay AID686979 (National Center for Advancing Translational Sciences (NCATS), 2013)
# The whole screen tested about 420,000 compounds, of which about 50,000 (12%) were called active. Inconclusive results, whose numbers are uncertain, are shown with a selection of clear calls. The call rests on the fitted dose curve; in most records, active means well fitted inhibition curve with a large enough effect; inconclusive means small, poorly fitted or top-dose-only effect; inactive means flat fitted curve, though single readings scatter. No potency is given beside an inconclusive call; the fits are too rough. A structure can be active in one record and inactive in another.
# Test: qHTS for Inhibitors of human tyrosyl-DNA phosphodiesterase 1 (TDP1): qHTS in cells in presence of CPT; further: nearly all actives have a fitted effect of over 55% in size
# Conditions: chicken DT40 Tdp1-/-;hTDP1 cells + 20 nM CPT, ATP luminescence, 48 h; activity change, negative = growth inhibition: at 46.2 µM (top of the series) unless noted
# In short: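 Cell growth measured by CellTiter-Glo luminescence after a minimum 48 h, 37 C compound exposure with 20 nM CPT in Tdp1-knockout DT40 cells stably expressing hTDP1, seeded 400/well; qHTS titration format.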
# On the % scale 0 is the no-effect control and ±100 the full control effect; potency means the concentration at half of the fitted maximal effect; tags describe the fitted curve by direction and shape.
Structure (SMILES),Potency,"activity change, negative = growth inhibition"
O=S(=O)(Cc1cc(Cl)nc(-c2cccnc2)n1)c1ccccc1,"inconclusive [inhibitor, single point]",–
CC(=O)N1CCN(c2ccccc2NC(=O)c2ccc(-c3cccc([N+](=O)[O-])c3)o2)CC1,active: 23.1 µM,–
O=C(COc1ccc(S(=O)(=O)NC2CCCCC2)cc1Cl)Nc1ccc2c(c1)OCO2,"inconclusive [inhibitor, single point]",–
Nc1cc(C(=O)c2ccccc2)ccc1[N+](=O)[O-],–,inactive: -6.01%
O=C(N/N=C/c1ccc(O)cc1O)c1ccc(CN2C(=O)c3cccc4cccc2c34)cc1,active: 4.61 µM,–
CCC1(CC)NC(=O)N(CC(=O)OCC(=O)Nc2ccc(OC(F)(F)F)cc2)C1=O,–,inactive: -21.2%
COCCNc1ccc(-c2nc(-c3ccccn3)no2)cc1[N+](=O)[O-],–,inactive: -26.4%
O=C(CN1C(=O)CC(c2ccccc2)S(=O)(=O)c2ccccc21)NC1CCCC1 (centres undefined),–,inactive: -12.7%
Nc1ccc2oc(Cc3ccc(Cl)cc3)nc2c1,"inconclusive [inhibitor, single point]",–
Cc1cccc(OCC(=O)Nc2ccccc2C(=O)OCc2cc(=O)n3nc(C4CC4)sc3n2)c1,–,inactive: -16.3%
Cc1ccsc1C(C(=O)NC1CCCCC1)N(C(=O)Cc1cccs1)C1CC1 (centres undefined),active: 20.6 µM,–
COc1ccc2oc(C(=O)OC(C)C(=O)N3C(C)CCCC3C)c(C)c2c1 (centres undefined),"inconclusive [inhibitor, single point]",–
Cc1ccc(NC2CCCN(C(=O)c3cc4ncccn4n3)C2)cc1C (centres undefined),–,inactive: 3.98%
COc1cccc(CNc2ccc3[nH]c(=O)[nH]c3c2)c1OCc1ccc(F)cc1,–,inactive: -4.71%
COc1ccc(Cl)cc1NC(=O)CN(C)C(=O)c1cccc2cccnc12,"inconclusive [inhibitor, single point]",–
Oc1ccc(C(=S)N2CCCCC2)cc1Cl,–,inactive: -2.72%
CCOCCCNC(=O)C(c1ccccc1)N(Cc1cccs1)C(=O)c1ccccc1O (centres undefined),–,inactive: -12.2%
COc1ccc(Nc2cc(C(=O)NCCCN3CCN(C)CC3)c3ccccc3n2)cc1,"inconclusive [inhibitor, single point]",–
CC(C)C(c1nnnn1C1CCCCC1)N1CCc2ccccc21 (centres undefined),"inconclusive [inhibitor, single point]",–
CCCCCCC[n+]1ccc(/C=C/c2c(C)[nH]c3ccccc23)cc1,active: 0.316 µM,–
O=C(CCSCCC(=O)NCc1ccc(F)cc1)NCc1ccc(F)cc1,"inconclusive [inhibitor, single point]",–
COCC(C)n1c(C)cc(C(=O)CSc2nc(C)c(C)c(C)n2)c1C (centres undefined),"inconclusive [inhibitor, single point]",–
Cc1ccc(NC(=O)c2ccc(NS(=O)(=O)c3c(C)noc3C)cc2)cc1C,–,inactive: -29.7%
CCCNC(=O)N1CCC(c2nc3ccccc3s2)CC1,–,inactive: -17.6%
Cc1ccc(CCNC(=O)c2cc3c(=O)n(C)c4ccccc4c3n2C)cc1,"inconclusive [inhibitor, single point]",–

Structure (SMILES),Potency,"activity change, negative = growth inhibition"
NC(=O)CC(NC(=O)Cc1cccc2ccccc12)c1ccc(N2CCN(c3ccccn3)CC2)c([N+](=O)[O-])c1 (centres undefined),"inconclusive [inhibitor, single point]",–
CCc1nn(C(CC)C(=O)NCc2cccc(OC)c2OC)c(=O)c2cc3occc3n12 (centres undefined),active: 20.6 µM,–
O=C(CCNC(=O)c1ccc([N+](=O)[O-])cc1)NNC(=O)c1ccncc1,–,inactive: 21.8%
Cc1ccc2cc3cc(C(=O)N(C)c4ccccc4C)oc3nc2c1,"inconclusive [inhibitor, single point]",–
CCn1cc(C(=O)Nc2ccc(C(C)C)cc2)c2cc(OC)c(OC)cc2c1=O,"inconclusive [inhibitor, single point]",–
CCCS(=O)(=O)c1nc(S(=O)(=O)c2ccc(C)cc2)c(NCCCn2ccnc2)s1,–,inactive: -9.26%
COc1ccc(CCNC(=O)CS(=O)(=O)Cc2nc(-c3ccc(C)cc3)oc2C)cc1OC,–,inactive: -25.7%
COc1ccc2cnn(-c3ccccc3)c(=O)c2c1OC,"inconclusive [inhibitor, single point]",–
CCOc1ccc(-n2cc(-c3ccccc3)c3c(=S)nc[nH]c32)cc1,active: 14.6 µM,–
Cc1ccc(C(C(=O)NC2CCCCC2)N(C(=O)c2csnn2)c2ccccc2F)o1 (centres undefined),–,inactive: -18%
O=c1oc2ccccc2cc1-c1nnc(-c2cccc(Br)c2)o1,–,inactive: -22%
O=C(O)CSCC(=O)N1N=C2/C(=C/c3ccccc3)CCCC2C1c1ccccc1 (centres undefined),–,inactive: -16.6%
N#CC1=C(SCC(=O)Nc2ccccc2)NC(=O)CC1c1ccc(O)cc1 (centres undefined),"inconclusive [inhibitor, partial curve]",–
CCCc1c(-c2ccc(F)cc2F)ncn1Cc1cccc(-c2ccccc2)c1,active: 5.17 µM,–
CCOC(=O)c1ccc(NC(=O)c2c(NCc3cc(OC)ccc3OC)sc3c2CCC3)cc1,active: 16.4 µM,–
CCc1ccccc1NC(=O)CN(C)C(=O)c1cccc(S(=O)(=O)N2CCCCCC2)c1,–,inactive: -22.6%
C/C(=N\NC(=O)COc1ccccc1[N+](=O)[O-])c1cccc(NC(=O)c2ccncc2)c1,"inconclusive [inhibitor, partial curve]",–
Cc1cc(C)c(C#N)c(SCc2nnc(-c3ccccc3[N+](=O)[O-])o2)n1,active: 25.9 µM,–
O=C(c1ccc2c(=O)n(Cc3ccco3)c(=S)[nH]c2c1)N1CCN(Cc2ccccc2)CC1,"inconclusive [inhibitor, full curve]",–
CCO[C@@H]1OC(C(=O)N2CCCCCCC2)=C[C@H](c2cn(C(C)=O)c3ccccc23)[C@H]1CCCO,active: 16.4 µM,–
CCOC(=O)[C@@H]1[C@H]2COc3cc(OC)ccc3[C@@H]2N2C(=O)N(c3ccccc3)C(=O)[C@@]12C,"inconclusive [inhibitor, single point]",–
O=C1CC(c2cccc(Cl)c2)CC(O)=C1C=Nc1cccc(Cl)c1 (centres undefined),–,inactive: 8.49%
Cc1ccccc1Nc1scc(-c2ccc(Br)cc2)[n+]1-c1ccccc1C,"inconclusive [inhibitor, single point]",–
CCOc1c(Cl)cc(CNCC(O)c2ccccc2)cc1OC (centres undefined),"inconclusive [inhibitor, single point]",–
Nc1c(C(=O)Nc2ccccc2)sc2nc(-c3ccco3)ccc12,active: 23.1 µM,–

Structure (SMILES),Potency,"activity change, negative = growth inhibition"
N#Cc1nc(-c2ccc(OCc3ccc(Cl)cc3)cc2)oc1N1CCCCC1,–,inactive: -24.2%
Cc1cccc(C)c1NC(=O)CN1C(=O)c2ccccc2Sc2ncccc21,"inconclusive [inhibitor, single point]",–
Cc1nc2ccccc2c(-c2ccccc2)c1CC(=O)O,–,inactive: -16%
Fc1ccc(NC(=S)Nc2ccccc2OC(F)F)cc1Cl,"inconclusive [inhibitor, single point]",–
Cc1ccc(-n2cccc2C(=O)NS(=O)(=O)c2ccc(C)cc2)cc1,–,inactive: -1.97%
COCCCNC(=O)CSc1nc2ccccc2c(=O)n1CCc1ccc(S(N)(=O)=O)cc1,"inconclusive [inhibitor, partial curve, poor fit]",–
COc1ccc(CNC(=O)c2cc(-c3ccncc3)nc3c(C)cc(C)cc23)cc1OC,"inconclusive [inhibitor, single point]",–
CC1(C(=O)NCC2CC2)Cc2c(-c3cccc(C(N)=O)c3)ccnc2O1 (centres undefined),"inconclusive [inhibitor, single point]",–
COc1ccc(N2CCN(Cc3nc(N)nc(N4CCCc5ccccc54)n3)CC2)cc1,"inconclusive [inhibitor, single point]",–
COc1cc(OC)c2c(-c3ccccc3)cc(C3CCCCC3)nc2c1,"inconclusive [inhibitor, single point]",–
CSc1nnc(-c2sccc2OCc2ccc(C)cc2)n1C,"inconclusive [inhibitor, partial curve]",–
COc1ccc(CC(NC(C)=O)C(=O)NC2CCN(S(=O)(=O)c3ccc(NC(C)=O)cc3)CC2)cc1OC (centres undefined),–,inactive: -22.4%
COc1cc(OC)c(NC(=O)CC2SC(N)=NC2=O)cc1Cl (centres undefined),–,inactive: -16%
CC1CN(c2ccc(Cl)cc2)c2nc3c(c(=O)[nH]c(=O)n3C)n2C1 (centres undefined),"inconclusive [inhibitor, single point]",–
Cc1cc(/C=N/NC(=O)CC2(C)OCCO2)c(C)n1-c1ccc(Cl)c(Cl)c1,"inconclusive [inhibitor, single point]",–
S=C(NCCc1ccccc1)Nc1nccs1,"inconclusive [inhibitor, single point]",–
CC(C)OCCCNC(=O)c1nn(C)c2c1CSc1ccccc1-2,"inconclusive [inhibitor, single point]",–
COCOc1cccc(CN2CCC2(C)C(=O)Nc2ccc(C)cc2)c1 (centres undefined),"inconclusive [inhibitor, single point]",–
COc1ccc(-c2noc(CSc3nnc(-c4ccccc4)n3C)n2)cc1,active: 23.1 µM,–
O=C(C1CC1)N1CCN(c2ccc(O)cc2)CC1,"inconclusive [inhibitor, single point]",–
CCNc1nc(CN2CCOCC2)nc2sc3c(c12)CCC3,–,inactive: -0.0279%
Fc1ccc(C2=CC(c3ccc(Br)o3)n3ncnc3N2)cc1 (centres undefined),"inconclusive [inhibitor, single point]",–
Cc1cc(C)c(OCC(=O)N/N=C/c2ccco2)c(C)c1,"inconclusive [inhibitor, single point]",–
O=C(COC(=O)c1ccc([N+](=O)[O-])s1)Nc1ccccc1,"inconclusive [inhibitor, single point]",–
